This is one part of the list. The list includes weakly bound sequences.
Biological target: T1, MBP-FoxP3dN (UniProt Q99JB6)
T1 sequence: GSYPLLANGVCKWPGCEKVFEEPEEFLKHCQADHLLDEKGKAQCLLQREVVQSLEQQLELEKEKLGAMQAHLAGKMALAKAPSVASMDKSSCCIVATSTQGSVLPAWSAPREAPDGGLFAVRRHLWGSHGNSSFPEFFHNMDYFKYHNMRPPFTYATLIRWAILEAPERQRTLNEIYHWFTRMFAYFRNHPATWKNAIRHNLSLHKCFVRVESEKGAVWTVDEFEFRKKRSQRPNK
Assay: PD-seq (MBP pull-down with sequencing)
Settings: 20 mM Tris-HCl pH 7.5, 100 mM NaCl, 1.5 mM MgCl2, 0.4 uM protein, 0.1 uM dsDNA library, 30 min, room temperature, amylose pull-down; high values mean tight binding; double strand, one strand shown

Question: Which binding signal (RPM ratio (pull-down/input)) does the source give for “GATGATTGTTCTCCCAGCTGATGAATTACCAGACTCGAGTAAACAAATTTTCCTAATCTTTCTGTTCAAGCGCCATCTAC” here?
Answer: 0.211

Question: With “GATGATTGTTCTCCCAGCTGATGAATTATCCTTATCGAGTAAACAAATTTTCCTAATCTTTCTGTTCAAGCGCCATCTAC” as the sequence, how does the binding signal (RPM ratio (pull-down/input)) read?
Answer: 0.317

Question: With “GATGATTGTTCTCCCAGCTGATGAATTTGCGCCGTCGAGTAAACAAATTTTCCTAATCTTTCTGTTCAAGCGCCATCTAC” as the sequence, how does the binding signal (RPM ratio (pull-down/input)) read?
Answer: 0.938

Question: “GATGATTGTTCTCCCAGCTGATGAATTGCCTAGATCGAGTAAACAAATTTTCCTAATCTTTCTGTTCAAGCGCCATCTAC” was tested. Which binding signal (RPM ratio (pull-down/input)) did it give?
Answer: 0.369

Question: For “GATGATTGTTCTCCCAGCTGATGAATTGACGCCCTCGAGTAAACAAATTTTCCTAATCTTTCTGTTCAAGCGCCATCTAC”, which binding signal (RPM ratio (pull-down/input)) is on record?
Answer: 0.785

Question: “GATGATTGTTCTCCCAGCTGATGAATTTAGAGGGTCGAGTAAACAAATTTTCCTAATCTTTCTGTTCAAGCGCCATCTAC” was tested. Which binding signal (RPM ratio (pull-down/input)) did it give?
Answer: 0.435

Question: Which binding signal (RPM ratio (pull-down/input)) does the source give for “GATGATTGTTCTCCCAGCTGATGAATTTAACCAATCGAGTAAACAAATTTTCCTAATCTTTCTGTTCAAGCGCCATCTAC” here?
Answer: 0.302

Question: “GATGATTGTTCTCCCAGCTGATGAATTCCCTAGTTCGAGTAAACAAATTTTCCTAATCTTTCTGTTCAAGCGCCATCTAC” was tested. Which binding signal (RPM ratio (pull-down/input)) did it give?
Answer: 0.228

Question: For “GATGATTGTTCTCCCAGCTGATGAATTGGTAGAGTCGAGTAAACAAATTTTCCTAATCTTTCTGTTCAAGCGCCATCTAC”, which binding signal (RPM ratio (pull-down/input)) is on record?
Answer: 0.325

Question: Which binding signal (RPM ratio (pull-down/input)) does the source give for “GATGATTGTTCTCCCAGCTGATGAATTAAGCCATTCGAGTAAACAAATTTTCCTAATCTTTCTGTTCAAGCGCCATCTAC” here?
Answer: 4.08

Question: How did the binding signal (RPM ratio (pull-down/input)) turn out when “GATGATTGTTCTCCCAGCTGATGAATTACAGTGATCGAGTAAACAAATTTTCCTAATCTTTCTGTTCAAGCGCCATCTAC” was run?
Answer: 0.552

Question: For “GATGATTGTTCTCCCAGCTGATGAATTGACGCCTTCGAGTAAACAAATTTTCCTAATCTTTCTGTTCAAGCGCCATCTAC”, which binding signal (RPM ratio (pull-down/input)) is on record?
Answer: 2.27

Question: For “GATGATTGTTCTCCCAGCTGATGAATTATAGTAATCGAGTAAACAAATTTTCCTAATCTTTCTGTTCAAGCGCCATCTAC”, which binding signal (RPM ratio (pull-down/input)) is on record?
Answer: 0.658

Question: For “GATGATTGTTCTCCCAGCTGATGAATTTGGAAAGTCGAGTAAACAAATTTTCCTAATCTTTCTGTTCAAGCGCCATCTAC”, which binding signal (RPM ratio (pull-down/input)) is on record?
Answer: 0.21

Question: For “GATGATTGTTCTCCCAGCTGATGAATTGGCAAAGTCGAGTAAACAAATTTTCCTAATCTTTCTGTTCAAGCGCCATCTAC”, which binding signal (RPM ratio (pull-down/input)) is on record?
Answer: 0.247

Question: How did the binding signal (RPM ratio (pull-down/input)) turn out when “GATGATTGTTCTCCCAGCTGATGAATTTGCGATCTCGAGTAAACAAATTTTCCTAATCTTTCTGTTCAAGCGCCATCTAC” was run?
Answer: 1.23

Question: “GATGATTGTTCTCCCAGCTGATGAATTCCGCATTTCGAGTAAACAAATTTTCCTAATCTTTCTGTTCAAGCGCCATCTAC” was tested. Which binding signal (RPM ratio (pull-down/input)) did it give?
Answer: 6.33

Question: Which binding signal (RPM ratio (pull-down/input)) does the source give for “GATGATTGTTCTCCCAGCTGATGAATTATGGCACTCGAGTAAACAAATTTTCCTAATCTTTCTGTTCAAGCGCCATCTAC” here?
Answer: 0.958

Question: Which binding signal (RPM ratio (pull-down/input)) does the source give for “GATGATTGTTCTCCCAGCTGATGAATTGCAACCGTCGAGTAAACAAATTTTCCTAATCTTTCTGTTCAAGCGCCATCTAC” here?
Answer: 1.97

Question: How did the binding signal (RPM ratio (pull-down/input)) turn out when “GATGATTGTTCTCCCAGCTGATGAATTGCGACCTTCGAGTAAACAAATTTTCCTAATCTTTCTGTTCAAGCGCCATCTAC” was run?
Answer: 0.908

Question: With “GATGATTGTTCTCCCAGCTGATGAATTATCTTTGTCGAGTAAACAAATTTTCCTAATCTTTCTGTTCAAGCGCCATCTAC” as the sequence, how does the binding signal (RPM ratio (pull-down/input)) read?
Answer: 0.849

Question: For “GATGATTGTTCTCCCAGCTGATGAATTGCAGGAATCGAGTAAACAAATTTTCCTAATCTTTCTGTTCAAGCGCCATCTAC”, which binding signal (RPM ratio (pull-down/input)) is on record?
Answer: 0.431

Question: Which binding signal (RPM ratio (pull-down/input)) does the source give for “GATGATTGTTCTCCCAGCTGATGAATTATGTGCCTCGAGTAAACAAATTTTCCTAATCTTTCTGTTCAAGCGCCATCTAC” here?
Answer: 1.56

Question: How did the binding signal (RPM ratio (pull-down/input)) turn out when “GATGATTGTTCTCCCAGCTGATGAATTACGTCCCTCGAGTAAACAAATTTTCCTAATCTTTCTGTTCAAGCGCCATCTAC” was run?
Answer: 0.691

Question: How did the binding signal (RPM ratio (pull-down/input)) turn out when “GATGATTGTTCTCCCAGCTGATGAATTGAAATCTTCGAGTAAACAAATTTTCCTAATCTTTCTGTTCAAGCGCCATCTAC” was run?
Answer: 0.246

Question: Which binding signal (RPM ratio (pull-down/input)) does the source give for “GATGATTGTTCTCCCAGCTGATGAATTTTACGAATCGAGTAAACAAATTTTCCTAATCTTTCTGTTCAAGCGCCATCTAC” here?
Answer: 0.25

Question: How did the binding signal (RPM ratio (pull-down/input)) turn out when “GATGATTGTTCTCCCAGCTGATGAATTGAGCGGATCGAGTAAACAAATTTTCCTAATCTTTCTGTTCAAGCGCCATCTAC” was run?
Answer: 0.265

Question: With “GATGATTGTTCTCCCAGCTGATGAATTAAACAAATCGAGTAAACAAATTTTCCTAATCTTTCTGTTCAAGCGCCATCTAC” as the sequence, how does the binding signal (RPM ratio (pull-down/input)) read?
Answer: 0.847

Question: How did the binding signal (RPM ratio (pull-down/input)) turn out when “GATGATTGTTCTCCCAGCTGATGAATTTGTTGTGTCGAGTAAACAAATTTTCCTAATCTTTCTGTTCAAGCGCCATCTAC” was run?
Answer: 8.35

Question: For “GATGATTGTTCTCCCAGCTGATGAATTGGAGGGATCGAGTAAACAAATTTTCCTAATCTTTCTGTTCAAGCGCCATCTAC”, which binding signal (RPM ratio (pull-down/input)) is on record?
Answer: 0.208

Question: Which binding signal (RPM ratio (pull-down/input)) does the source give for “GATGATTGTTCTCCCAGCTGATGAATTCGCCCACTCGAGTAAACAAATTTTCCTAATCTTTCTGTTCAAGCGCCATCTAC” here?
Answer: 0.406

Reference: publication PMC12820563
